Data as given in PubChem BioAssay AID493208 (National Center for Advancing Translational Sciences (NCATS), 2011).
About 340 (0.77%) of roughly 44,000 compounds were called active. Not shown: some 5% with an inconclusive outcome. Calls follow the shape of the dose curve; as a rule, active = well fitted inhibition curve with a large enough effect; inconclusive = small, poorly fitted or top-dose-only effect; inactive = flat fitted curve, though single readings scatter. The list shows a part of the results.

test: Acumen qHTS Assay for Inhibitors of the mTORC1 Signaling Pathway in MEF (Tsc2-/-, p53-/-) Cells: Sytravon; conditions: phospho-rpS6 immunofluorescence/PI, 24 h; series mostly up to 38.3 µM; activity change, negative = inhibition: at the top concentration; also: nearly all actives have a fitted effect of over 50% in size;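 as to activity change, negative = inhibition: plate controls were DMSO for no effect and rapamycin for full effect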
Outline: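 Plate MEFs (Tsc2-/-, p53-/-, empty vector) in DMEM/10% FBS; after 24 h add compound, incubate 24 h at 37 degree Celsius; fix in PFA/TX-100, block, stain phospho-rpS6 and 10 uM PI; scan at 488 nm; report % positive cells.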
Potency is read from the fitted curve at half-maximal effect.

Compound | activity change, negative = inhibition | Potency
COCCn1c(C)cc(O)c(C(c2ccccc2OC)N2CCCCC2)c1=O (stereo not given) | inactive: 5.21% | –
COc1ccc(OC)c(CCNC(=O)c2ccc3[nH]c(C)c(C)c3c2)c1 | inactive: -4.15% | –
COc1ccc(C(CC(=O)Nc2ccc(OC)c(OC)c2)N2Cc3ccccc3C2=O)cc1 (stereo not given) | inactive: 1.2% | –
Cc1ccc(C)c(N2CCN(C(=O)c3cccn3-c3nnc(N4CCCCC4)s3)CC2)c1 | inactive: -11.7% | –
COc1cccc(CNC(=O)c2cc3c(=O)n(C)c4ccccc4c3n2C)c1 | inactive: 2.13% | –
COc1ccc2cc(CNc3ccccc3)c(=O)n(CC(=O)Nc3ccc(C)cc3C)c2c1 | – | active: 7.36 µM
Cc1ccc2nc(SCc3nc(-c4ccccc4C)no3)[nH]c2c1 | inactive: 4.4% | –
Cc1ccc2c(CC(=O)Nc3c(C(=O)Nc4cccc(Cl)c4)oc4ccccc34)coc2c1C | inactive: -1.78% | –
CCCCN(CC)CCNC(=O)Cn1c(=O)c2cccn2c2cccnc21 | inactive: -6.66% | –
Cc1ccc(NC(=O)Cn2c(=O)c(C(F)(F)F)nc3ccccc32)c(C)c1 | inactive: 6.83% | –
Cc1ccc(N2CCN(C(=O)C3CCC(CNS(=O)(=O)c4ccc(Br)s4)CC3)CC2C)cc1 (stereo not given) | inactive: -10.3% | –
Cc1ccc(Nc2cc(C(=O)NC3CCCC3)c3ccccc3n2)c(C)c1 | inactive: -4.58% | –
CN(Cc1ccccc1)C(=O)Cn1ncc2c3ccccc3n(Cc3cccc(Cl)c3)c2c1=O | inactive: -3.98% | –
COc1ccc(NC(=O)CSC2=Nc3ccccc3C3=NC(Cc4ccccc4)C(=O)N23)cc1Cl (stereo not given) | inactive: 4.36% | –
Cc1ccc(Cl)cc1Nc1sc(C(=O)c2ccccc2)c(N)c1S(=O)(=O)c1ccccc1 | inactive: 5.33% | –
CC(C)(C)c1ccc(C(=O)N2CC(=O)Nc3ccc(F)cc3C2c2ccc(F)cc2)cc1 (stereo not given) | inactive: 0% | –
Cc1cc(C)c2oc(-c3cccc(NC(=O)c4cc5ccccc5o4)c3)nc2c1 | inactive: -3.68% | –
COc1cc(CCC(=O)NCc2ccc3c(c2)CCN3C(=O)c2cccc(C)c2)cc(OC)c1OC | inactive: -14.9% | –
COc1cc(C2c3c(oc4ccccc4c3=O)C(=O)N2Cc2ccccc2Cl)ccc1O (stereo not given) | inactive: 2.58% | –
Cc1ccnc(NS(=O)(=O)c2cc(-c3cc(C)no3)ccc2C)c1 | inactive: -6.12% | –

Compound | activity change, negative = inhibition | Potency
Cc1ccc(-n2ncc(C(=O)Nc3ccc4c(c3)OCO4)c2C2CCN(C(=O)OC(C)(C)C)CC2)cc1 | inactive: -9.36% | –
Cc1nc2scc(C)n2c(=O)c1S(=O)(=O)Nc1ccc(N2CCOCC2)cc1 | inactive: -4.73% | –
CCc1ccc(N(CC)C(=O)Cn2c(=O)oc3ccccc32)cc1 | inactive: -8.13% | –
Cc1nn(S(=O)(=O)c2ccc(F)cc2)c(C)c1S(=O)(=O)N1CCC(C)CC1 | inactive: -2.31% | –
COc1ccc(NC(=O)C2CCCN(S(=O)(=O)c3ccc4c(c3)CCCC(=O)N4)C2)c(OC)c1 (stereo not given) | inactive: 6.98% | –
COc1cccc2cc(C(=O)NCCc3c(C)[nH]c4ccc(Br)cc34)c(=O)oc12 | inactive: -29.3% | –
Cc1ccc(S(=O)(=O)c2cn(Cc3ccc(F)cc3)c3cc(F)c(F)cc3c2=O)cc1 | inactive: -1.27% | –
CCOC(=O)c1cc2c(=O)n3ccccc3nc2n(CC(C)C)c1=NC(=O)c1cc2ccccc2o1 | inactive: 14.9% | –
CC(=O)c1cccc(NC(=O)CCS(=O)(=O)c2ccc(Br)s2)c1 | inactive: -4.33% | –
CCOCCn1ccc2c(OCC(=O)Nc3ccc(OC(F)(F)F)cc3)cccc2c1=O | inactive: 2.08% | –
O=C(CN1C(=O)CC(c2ccccc2)Sc2ccccc21)Nc1cccc(Cl)c1 (stereo not given) | inactive: -13.5% | –
CC(C)(C)NC(=O)c1cnn2c(C(F)F)cc(-c3ccccc3)nc12 | inactive: -4% | –
COc1ccc(/C=C/C(=O)Nc2nc3n(n2)C(c2ccccc2)C=C(c2ccccc2)N3)cc1 (stereo not given) | inactive: -13.4% | –
CCN(C(=O)Cn1c(=O)oc2cc(Cl)ccc21)c1cccc(C(F)(F)F)c1 | inactive: -1.91% | –
Cc1ccc(CCNC(=O)C2CCN(c3nnc(-n4cccc4CNc4ccc(C)cc4)s3)CC2)cc1 | inactive: 2.34% | –
COCCCNC(=O)c1cc(-c2cccnc2)nc2ccc(S(=O)(=O)N3CCC(C)CC3)cc12 | inactive: 0.654% | –
CN1C(=O)C2(c3ccccc31)N(c1cccc(F)c1)C(=O)CS2(=O)=O (stereo not given) | inactive: -1.07% | –
COc1ccc(Cl)cc1NC(=O)c1c(NCc2sccc2C)sc2c1CCCC2 | inactive: -1.61% | –
Clc1ccccc1CNc1nc2ccccc2c2nc(-c3cccnc3)nn12 | inactive: -0.0869% | –
O=C(NCc1ccccc1Cl)c1cnc2sc(N3CCCCC3)nn2c1=O | inactive: 4.11% | –

Compound | activity change, negative = inhibition | Potency
COc1ccc(OC)c(CNS(=O)(=O)c2c(C(=O)N3CCCCCC3)c(C)n(C)c2C)c1 | inactive: -9.38% | –
O=C(Cn1nnc(-c2ccc(Cl)cc2)n1)NCc1ccc(F)cc1 | inactive: 1.78% | –
COc1ccccc1N1CCN(C(=O)CCNS(=O)(=O)c2ccc3c(c2)CCN3C(=O)C2CC2)CC1 | inactive: -0.662% | –
COc1ccc(Cl)cc1NC(=O)CSC1=Nc2ccccc2C2=NC(CC(=O)NCc3ccc4c(c3)OCO4)C(=O)N12 (stereo not given) | inactive: 0.646% | –
Cc1ccc(NC(=O)c2cnc(SCC(=O)Nc3cc(C)on3)n(C)c2=O)cc1 | inactive: 0.958% | –
C=CCc1ccccc1OCC(O)CN1CCN(c2ccccc2)CC1 (stereo not given) | inactive: 7.22% | –
COc1ccccc1C(=O)Nc1ccc2c(c1)nc(CN1CCCCC1)n2C | inactive: 3.71% | –
Cc1cc(C)n2nc(SCC(=O)Nc3cccc(C(F)(F)F)c3)nc2n1 | inactive: 1.91% | –
CCn1c(=O)n(CC)c2cc(N3CCCCC3)c(NC(=O)Nc3ccccc3C(F)(F)F)cc21 | inactive: -0.922% | –
CCC(Oc1ccc(F)cc1)C(=O)Nc1nc(-c2ccc(F)cc2)ns1 (stereo not given) | inactive: -11.5% | –
COc1ccc(C(CC(=O)NCc2ccccc2)N2Cc3ccccc3C2=O)cc1 (stereo not given) | inactive: -7.41% | –
CCOC(=O)c1ccc(NC(=O)CC2C(=O)N(c3cccc(OC)c3)C(=O)N2Cc2ccc(OC)cc2)cc1 (stereo not given) | inactive: 2.01% | –
CCc1ccccc1NC(=O)c1cnc2sc(N3CCOCC3)nn2c1=O | inactive: -10.1% | –
CC(C)c1cnc2c(c1SCC(=O)NCc1ccccc1)c(=O)n(C)c(=O)n2C | inactive: 1.02% | –
Cc1ccccc1NC(=O)CSc1nc(=O)n(CCN2CCOCC2)c2c1CCC2 | inactive: -0.827% | –
Cc1sc2c(c1C)c(=O)n(-c1cccc(C(F)(F)F)c1)c(=O)n2Cc1ccc(F)cc1 | inactive: 0.486% | –
COC(=O)c1ccc(NC(=O)CCc2c(C)nc3c(c2C)c(=O)n(C)c(=O)n3C)cc1 | inactive: -10.4% | –
COc1ccccc1Cc1nc2ccccc2nc1SCC(=O)Nc1cccc(Cl)c1C | inactive: -27% | –
COc1cc(NC(=O)CSC2=Nc3ccccc3N=C(c3ccc(F)cc3)C2)cc(OC)c1 | inactive: 5.63% | –
COc1ccc(CNC(=O)c2cnc3cc(C)ccn3c2=O)cc1 | inactive: -2.87% | –
